Some of the results follow. Sequences were assembled here from the parent chain. Values near 0.05 are background.
B1: TEV protease; numbered along this chain (parent)
chain: MGESLFKGPRDYNPISSSICHLTNESDGHTTSLYGIGFGPFIITNKHLFRRNNGTLVVQSLHGVFKVKDTTTLQQHLVDGRDMIIIRMPKDFPPFPQKLKFREPQREERICLVTTNFQTKSMSSMVSDTSCTFPSGDGIFWKHWIQTKDGQCGSPLVSTRDGFIVGIHSASNFTNTNNYFTSVPKNFMELLTNQEAQQWVSGWRLNADSVLWGGHKVFMVKPEEPFQPVKEATQL

Variants of: B1
Experiment: raw area under fraction-flipped curve 0-4 h after induction (AUC4h, not background-subtracted), DNA-recorder readout of cleavage of the substrate (dimensionless); higher = more cleavage of the substrate by the protease variant
Conditions: temperature: 34 °C; time window: 0-4 h after rhamnose induction
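Note: Bxb1 expression induced with 0.2% (w/v) L-rhamnose at OD600 near 0.5, cultures sampled hourly, flipped fraction per protease–substrate barcode pair counted by paired-end Illumina sequencing.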

| Variant | area with substrate ENFYFQS | area with substrate ENNYFQS | area with substrate ENPYFQS | area with substrate ENQYFQS | area with substrate ENRYFQS | area with substrate ENYYFQS | area with substrate ENEYFQS | area with substrate ENTYFQS | area with substrate ENGYFQS | area with substrate ENHYFQS |
| --- | --- | --- | --- | --- | --- | --- | --- | --- | --- | --- |
| N177Q | 0.0678 | 0.0629 | 0.0668 | 0.063 | 0.0515 | 0.0662 | – | – | – | – |
| H76G | – | – | – | 0.0632 | – | – | 0.0725 | 0.0554 | – | – |
| T233W | – | – | – | – | – | – | 0.0715 | 0.0572 | 0.0595 | 0.0184 |
| F226V | 0.0602 | 0.0424 | – | – | – | 0.0515 | 0.0623 | – | – | – |
| I84N | 0.0567 | – | – | 0.0553 | – | – | – | 0.0477 | 0.038 | – |
| K7W | 0.0718 | – | – | 0.0616 | – | – | – | 0.0622 | 0.0521 | – |
| F163P | – | – | 0.0892 | 0.0621 | – | – | – | – | – | – |
| F163K | 0.0646 | – | – | – | – | – | – | – | – | – |
| F163A | – | – | – | – | – | – | – | 0.0708 | – | – |
| I139T | – | 0.062 | 0.0605 | 0.0664 | 0.0622 | 0.0422 | 0.0816 | – | – | – |
| V217L | – | – | – | – | – | – | – | 0.0694 | – | – |
| T119L | – | – | – | 0.0625 | – | – | – | – | – | 0.0476 |
| T119C | – | – | – | – | 0.0479 | – | – | – | – | – |
| E223A | – | – | – | – | – | – | – | – | – | 0.0544 |
| E223D | – | – | – | – | – | – | – | – | 0.042 | – |
| T176Q | 0.0581 | – | – | – | – | – | – | – | 0.0842 | 0.0638 |
| C131I | – | – | 0.0644 | 0.0596 | – | – | – | – | – | – |
| D91E | 0.0613 | – | – | – | 0.067 | – | – | – | – | – |
| L99I | – | 0.055 | – | 0.0508 | 0.0614 | – | – | 0.0657 | 0.0635 | 0.0586 |
| L99K | – | – | – | – | – | – | 0.0412 | 0.0623 | – | – |

| Variant | area with substrate ENFYFQS | area with substrate ENNYFQS | area with substrate ENPYFQS | area with substrate ENQYFQS | area with substrate ENRYFQS | area with substrate ENYYFQS | area with substrate ENEYFQS | area with substrate ENTYFQS | area with substrate ENGYFQS | area with substrate ENHYFQS |
| --- | --- | --- | --- | --- | --- | --- | --- | --- | --- | --- |
| Q118C | 0.0568 | – | – | 0.0412 | – | – | – | – | – | – |
| A170F | – | – | – | 0.0545 | – | – | – | 0.0386 | – | – |
| A170R | – | – | – | 0.056 | – | – | – | – | – | – |
| A170Q | – | 0.0538 | – | – | – | – | – | – | – | – |
| Q97Y | – | – | – | 0.0587 | – | – | – | – | – | – |
| Q97R | – | – | – | 0.0666 | – | – | – | – | 0.054 | – |
| Q97T | – | – | – | – | 0.0564 | – | – | – | – | – |
| Q97D | 0.0652 | – | – | 0.0602 | – | – | – | – | 0.0672 | – |
| Q97L | 0.0543 | – | 0.0592 | 0.0583 | – | – | 0.0575 | – | – | – |
| Q97G | – | – | – | – | – | – | 0.0498 | – | – | – |
| T174F | – | – | – | 0.0727 | 0.0836 | – | – | – | – | – |
| T174E | – | – | 0.072 | – | – | – | – | – | – | – |
| D128T | 0.042 | 0.0423 | – | 0.0554 | – | – | 0.0509 | – | 0.065 | – |
| G153Q | – | – | – | – | – | – | – | 0.0542 | – | 0.0552 |
| G153S | – | 0.0529 | – | 0.0421 | – | – | – | – | – | 0.0628 |
| D79E | – | 0.0592 | – | 0.0577 | – | – | – | 0.0722 | – | – |
| H215S | – | – | 0.0504 | 0.0631 | – | – | – | – | – | – |
| H215I | – | – | 0.0605 | 0.0682 | – | – | – | – | – | – |
| V220S | – | – | – | 0.0637 | – | – | 0.0556 | – | 0.0655 | 0.0587 |

Same assay, conditions: temperature: 34 °C; time window: 0-4 h after rhamnose induction

| Variant | area with substrate ENSYFQS | area with substrate ENVYFQS | area with substrate ENIYFQS | area with substrate ENWYFQS | area with substrate ENKYFQS | area with substrate ENMYFQS |
| --- | --- | --- | --- | --- | --- | --- |
| T233W | 0.077 | 0.0736 | – | – | – | – |
| F226V | 0.0758 | – | – | – | – | – |
| I84N | 0.0989 | 0.0507 | – | – | – | – |
| K7W | 0.0562 | – | – | – | – | – |
| N206L | 0.0663 | – | – | – | – | – |
| F163P | 0.0479 | 0.0468 | 0.039 | – | – | – |
| F163K | 0.0934 | – | – | 0.0723 | – | – |
| F163A | – | 0.0537 | – | – | – | – |
| I139T | – | 0.0866 | – | – | 0.0548 | – |
| V217L | 0.0505 | – | – | – | – | – |
| T119L | – | – | – | – | – | 0.0812 |
| T119C | 0.0709 | – | – | – | 0.0647 | – |
| E223A | – | 0.0824 | – | – | – | – |
| T176Q | – | 0.0563 | – | – | – | – |
| C131I | 0.0739 | 0.0811 | – | – | – | – |
| C131Q | 0.0427 | – | – | – | – | – |
| D91E | 0.0609 | – | – | – | – | – |
| L99H | 0.0468 | – | – | – | – | – |

| Variant | area with substrate ENSYFQS | area with substrate ENVYFQS | area with substrate ENIYFQS | area with substrate ENWYFQS | area with substrate ENKYFQS | area with substrate ENMYFQS |
| --- | --- | --- | --- | --- | --- | --- |
| Q118C | 0.0586 | 0.0836 | – | – | – | – |
| T147S | 0.0526 | – | – | – | – | – |
| A170I | – | 0.0646 | – | – | – | – |
| A170F | – | – | – | – | 0.0512 | – |
| A170R | 0.0568 | – | – | 0.0373 | – | – |
| A170Q | 0.0495 | – | – | – | – | – |
| Q97R | – | – | – | – | – | 0.0861 |
| Q97T | 0.0662 | – | 0.106 | – | – | 0.0741 |
| Q97D | 0.0721 | 0.0661 | – | – | – | – |
| Q97L | 0.0629 | – | – | – | 0.0818 | – |
| Q97G | 0.0781 | 0.0953 | – | – | – | – |
| T174F | 0.0727 | – | – | – | – | – |
| T174E | – | – | – | 0.0057 | – | – |
| D128T | 0.0603 | 0.0794 | 0.0847 | – | – | – |
| D79E | 0.0451 | 0.0751 | – | – | – | – |
| D79Q | 0.0854 | – | – | – | – | – |
| H215I | – | – | 0.0732 | – | – | – |
| V220S | 0.065 | 0.0551 | – | – | – | 0.088 |

Reference: the supplement of paper PMC12217912
